The supplement of paper PMC3334620
The full ranking holds about 33,000 sequences; the median of “E-score (-0.5 to 0.5)” is about -0.016, and the highest 2% start at about 0.32. The list shows a part of the results.

Biological target: T1, Stp1 (UniProt B3LFK1)
T1 sequence: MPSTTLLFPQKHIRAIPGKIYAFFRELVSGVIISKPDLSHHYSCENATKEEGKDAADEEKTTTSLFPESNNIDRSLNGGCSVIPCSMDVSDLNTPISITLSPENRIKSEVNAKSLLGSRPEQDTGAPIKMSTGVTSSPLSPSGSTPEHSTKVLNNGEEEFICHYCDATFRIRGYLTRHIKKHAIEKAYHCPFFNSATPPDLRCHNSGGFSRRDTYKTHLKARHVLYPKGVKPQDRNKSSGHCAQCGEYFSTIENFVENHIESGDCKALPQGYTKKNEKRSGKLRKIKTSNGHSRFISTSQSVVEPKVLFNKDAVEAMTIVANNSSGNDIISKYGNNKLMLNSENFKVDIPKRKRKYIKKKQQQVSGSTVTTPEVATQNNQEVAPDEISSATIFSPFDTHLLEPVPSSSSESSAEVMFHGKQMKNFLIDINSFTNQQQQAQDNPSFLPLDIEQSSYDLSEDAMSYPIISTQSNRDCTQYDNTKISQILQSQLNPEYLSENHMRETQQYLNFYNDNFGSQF
Test: PBM E-score (8-mer binding enrichment) (E-score (-0.5 to 0.5)); higher = stronger / more preferred TF binding; most listed sequences are background and not binding sites
Conditions: protein concentration: 200 nM; construct: GST-full length
Outline: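 Each ungapped eight-base word and its reverse complement, pooled, received an E-score from the Universal PBM Analysis Suite. Underlying scans, normalised with masliner, recorded fluorescent anti-GST bound to GST-tagged yeast transcription factors. These were applied at about 100-200 nM to universal all-10-mer Agilent arrays double-stranded by primer extension.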

Sequence	PBM E-score
AGTGACGC	-0.093
AATATGAT	0.171
GGACGGGA	-0.21
GAGTAAGA	0.0899
GCTTAACC	-0.197
AACCACTA	-0.103
GTGCCGGA	0.175
CCGTCTCG	0.197
CTAGAGGC	-0.0523
TGCAGGCA	-0.105
TACAGTGA	-0.0112
AGCAAGGC	0.29
CCAATCGC	0.164
ACCCTTGG	-0.28
TCCAGCCA	-0.159
ACAAGTCA	-0.012
AAATGCAT	0.0267
ATGACAGG	-0.132
AGATGCTA	-0.0596
ACACGTGG	0.108
CTGTCGGA	-0.144
GGCATAAC	0.134
AACATGGG	0.042
CACGATTC	0.101
AACAAGGC	0.184

Sequence	PBM E-score
CGAAACAC	0.0638
GACTTCCC	-0.338
CAGGCCTC	-0.356
GCTCGACA	-0.0566
ACCTGGAG	0.132
TACTGCAA	-0.146
CGCATAAC	0.00835
ATTACGTC	-0.0416
TATTCCGA	0.052
AACTTGCT	-0.106
GGCGATCA	0.145
CCTATACC	-0.275
AGATTGGA	-0.117
CAGACAGG	0.149
GGAGGGAA	-0.282
GAACCTAA	-0.0159
CGCCAAAC	-0.0861
CCGATATC	-0.0369
AAGGGCTG	-0.246
ACGCGGTG	0.0603
AATACAAA	0.116
GAAGATGC	-0.168
CTCGATGA	-0.0419
GGTACAAA	0.00814
TATCACCA	0.0166

Sequence	PBM E-score
AGCCAGCT	-0.121
AACACCTC	-0.324
CGCATCGA	0.0903
CCATAGCG	0.0647
ATTGTCCG	0.0154
AATTGCCA	-0.00723
AGCCTTCA	0.108
CTAGTGAC	-0.104
TGCAGCCA	0.0197
AATCACTA	0.0134
ATTGGGGA	-0.193
CATGAGCC	0.0875
CGCAGTAG	-0.127
AATGCCGT	0.485
AGGACGAA	0.123
CTCGCCCA	0.00487
TAAAGCAA	0.145
CATTGCAA	-0.00308
ACTTTTAC	0.226
CAGCCTGA	-0.0377
CCCATAAA	0.017
ATGCAAAC	-0.0781
ATTGACGA	0.126
GTCAGAGA	-0.0963
TTATGGAA	0.0641

Sequence	PBM E-score
TACGCTGA	0.182
ATCCAATC	0.045
GAGTCCCC	-0.385
ACTTAGAA	0.0195
AGCACGGC	0.451
ACAGGAGT	-0.0537
AATCTTAA	-0.0736
CGGCGAAA	0.354
CGGGCTGA	-0.142
AGACTTAA	-0.12
AATGGTGA	-0.00504
GCCATAGA	0.132
AGAAATAA	0.0754
ACATGCAT	-0.0665
CCCACCGG	-0.169
GTGGATGA	-0.104
GTGGGCTA	-0.161
CATGTCTA	-0.0239
AGAAGTCG	-0.0878
AAACAATG	-0.0267
AATAAATG	0.219
CGCCTGTA	-0.0697
ATCCGGAG	-0.0578
AAGTATCT	-0.0631
GCGCAGAA	0.216

Sequence	PBM E-score
GATGCTTA	-0.0459
AGTCAACC	-0.218
GGCATTAA	0.319
GGCTGCAC	0.0244
AAACCTTG	-0.177
TCCATCAA	0.0673
GGAGGTGA	-0.0209
ACTGGTCC	-0.321
CGTAGGAG	-0.127
CACGTCAG	-0.0897
ATAACTAA	0.123
ATGTTTAC	-0.00144
AGCCGGGC	-0.0588
GGGATATA	0.0195
GAACAGAC	-0.0627
GTTGGGAA	-0.0455
ACATTCGA	-0.0273
ATAATAAT	0.16
AGCAGGAT	-0.201
ACCCCCGC	-0.125
CGCTCAAC	-0.0888
AGCCCCGA	-0.315
TAGGCCAA	-0.086
ATCATAAG	0.0136
GAGCAGGC	-0.0781

Sequence	PBM E-score
GGTATAGA	-0.105
CACGCGCC	0.291
AAAGTATT	-0.0549
CGGTGTAA	-0.068
GTGGGTAA	-0.113
GACAGGCA	-0.0978
ACTGAAGT	-0.0141
ATTCGATC	0.0813
CTGGGCCA	-0.31
ATTATAAC	-0.0695
ACTTGTTA	0.106
ACCCGCAA	-0.214
CGAACCTA	-0.0355
CTCACGCA	0.172
CCTGGATC	-0.276
ATCTTCTC	-0.101
CTGCGCAG	-0.185
CCATGCCC	-0.0806
GAACAATA	0.184
CACAGCGG	0.0299
AATAGGGA	-0.271
GCTGGCAA	0.0771
ATTAGTGC	0.258
TCAGGCGA	-0.045
CAGCACAG	-0.00618

Sequence	PBM E-score
AGATCCGC	0.077
ATGCCAAC	0.134
CAACGATA	-0.0129
AAATCTAG	-0.00769
GCGACTGA	-0.227
GTGTTAGA	-0.0128
AGGAGTCG	-0.355
GTTCGGGA	-0.182
CCGAGAGG	-0.133
GAGCAAGA	0.0127
CAGCCTCG	-0.0153
GGTGTTTA	-0.0465
CCGTCGCG	0.189
AGGAAGAT	-0.0861
GAGAAGAC	-0.0278
AAATTTGT	0.0523
ATTCCGTG	0.127
ACTATCTA	0.0698
CAGAAGAG	-0.118
CGTACAAA	0.187
CACGCCAG	-0.0901
AGACTAAA	0.0832
